Data published in PubChem BioAssay AID624417 (National Center for Advancing Translational Sciences (NCATS), 2012).
The whole screen tested about 410,000 compounds, of which about 6,400 (1.6%) were called active. The inconclusive results got no clear call from the source; some entries with a clear call stand among them for comparison. The call rests on the fitted dose curve; in most records, active means well fitted inhibition curve with a large enough effect; inconclusive means small, poorly fitted or top-dose-only effect; inactive means no such curve, though single readings can be large or run the other way. Where the call is inconclusive, the potency comes from a doubtful curve fit.

Target: Glucagon-like peptide 1 receptor (Homo sapiens) (UniProt P43220)
UniProt P43220, sequence (P43220 whole entry, looked up): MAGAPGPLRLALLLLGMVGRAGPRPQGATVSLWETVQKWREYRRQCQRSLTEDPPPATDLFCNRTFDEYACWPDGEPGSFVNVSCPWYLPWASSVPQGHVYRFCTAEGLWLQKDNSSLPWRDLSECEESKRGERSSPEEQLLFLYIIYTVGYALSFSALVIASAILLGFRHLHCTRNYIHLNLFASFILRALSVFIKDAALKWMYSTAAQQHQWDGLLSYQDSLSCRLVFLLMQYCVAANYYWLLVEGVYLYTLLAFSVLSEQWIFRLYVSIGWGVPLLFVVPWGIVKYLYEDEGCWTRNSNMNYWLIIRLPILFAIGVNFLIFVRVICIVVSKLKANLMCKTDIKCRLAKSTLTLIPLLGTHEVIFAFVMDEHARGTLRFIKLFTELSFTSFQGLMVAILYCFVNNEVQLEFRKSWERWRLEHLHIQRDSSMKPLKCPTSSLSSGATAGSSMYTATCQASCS
Assay: qHTS of GLP-1 Receptor Inverse Agonists (Inhibition Mode); further: nearly all actives have a fitted effect of over 55% in size
Conditions: HEK293 GLP-1R CRE-luciferase, luminescence, 24 h, GLP-1R form is constitutively active; activity change, negative = inhibition: at 38.3 µM (top of the series) unless noted
Method in brief: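 HEK293 cells stably co-expressing constitutively active GLP-1R and a cAMP-responsive luciferase reporter were seeded in DMEM with 10% Nu serum, given compounds after 12 h, and incubated 24 h at 37 deg C. Luminescence was then read.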
On the % scale 0 is the no-effect control and ±100 the full control effect; potency means the concentration at half of the fitted maximal effect; tags describe the fitted curve by direction and shape.

Potency, active:
CSc1cccc(NC(=S)N2CCCN(Cc3cccc(Cl)c3)C2)c1 3.55 µM, COc1ccc(C2NC(c3ccc(OC)cc3)C(c3ccccc3)C(=O)C2c2ccccc2)cc1 (centres undefined) 5.62 µM

Potency, inactive:
CCOc1ccc(C(c2c(C)[nH][nH]c2=O)c2c(C)[nH][nH]c2=O)cc1OC, N#C/C(=C\c1cc(Br)ccc1F)C(=O)NC1CC1, COc1ccc2occ(C(C)=O)c2c1, CCNC(=S)NCc1ccco1, CCCCCCOc1ccc(/C=N/NC(=O)C2CC2)cc1, COc1ccc([C@@H]2[C@@H]3C(=O)N(C(C)(C)C)C(=O)[C@@H]3[C@]3(Cc4ccc(Cl)cc4)C(=O)N(c4ccc(OC)cc4)C(=O)N23)cc1, O=S(=O)(c1ccccc1)c1nnn2c1nc(NCc1ccccc1)c1cc(Cl)ccc12, CCOc1ccc(C(=O)Nc2ccc3oc(-c4ccc5ccccc5c4)nc3c2)cc1, O=C(/C=C/c1ccco1)NC(=S)NNC(=O)c1ccco1, O=C(NCCSc1ccccc1)c1cccnc1, COc1cc(N=c2ssnc2Cl)cc(OC)c1OC, COCCCNC(=O)C(=O)Nc1cc2c3c(c1)CCC(=O)N3CCC2, COc1cc(C(=O)Nc2ccc(NC(=O)c3cccc(Cl)c3)nc2)cc(OC)c1OC

Potency, inconclusive:
COc1ccc(-c2noc(-c3ccccc3F)n2)cc1 12.6 µM [inhibitor, single point], Oc1ccccc1-c1cc(-c2ccc(Cl)cc2)n[nH]1 28.2 µM [inhibitor, single point], COCCCn1c(N)c(-c2nc3ccccc3n2C)c2nc3ccccc3nc21 25.1 µM [inhibitor, single point], Cc1cc(C)nc(SCc2ccc(Br)cc2)n1 28.2 µM [inhibitor, single point], CCCOc1ccccc1/C=C1\SC(N2CCCCC2)=NC1=O 1.41 µM [inhibitor, full curve, poor fit], CCc1cc(C(=O)NC2CCCc3c2cnn3-c2ccc(F)cc2F)no1 (centres undefined) 28.2 µM [inhibitor, single point], C=CCNc1nc2ccccc2nc1NS(=O)(=O)c1ccc(Cl)cc1 11.2 µM [inhibitor, single point], COc1ccccc1N1CCN(C2CCCCC2NS(=O)(=O)c2ccc(Cl)cc2)CC1 (centres undefined) 0.891 µM [inhibitor, full curve, poor fit], CC(=O)/C(C#N)=C1\NC(=O)C(Cc2ccccc2)S1 (centres undefined) 4.47 µM [inhibitor, full curve], O=C(Nc1ccccc1)NC1CCCCCCC1 14.1 µM [inhibitor, single point], Cc1ccc2occ(CC(=O)Nc3ccc(S(=O)(=O)N4CCC(C)CC4)cc3)c2c1 10 µM [inhibitor, partial curve, poor fit], Cc1ccc(N(Cc2ccccc2)C(=O)Cc2ccc(S(=O)(=O)N3CCOCC3)s2)cc1 10 µM [inhibitor, partial curve, poor fit], CCC(C)Sc1ccc([C@H]2N[C@@](Cc3ccccc3)(C(=O)OC)[C@H]3C(=O)N(CC)C(=O)[C@@H]23)cc1 (some centres undefined) 12.6 µM [inhibitor, partial curve, poor fit], COc1ccc(C(c2nnnn2CC2CCCO2)N2CCN(c3cccc(C)c3C)CC2)cc1 (centres undefined) 11.2 µM [inhibitor, single point], Cc1cc(Cl)ccc1OCC(=O)N1CC(C)CC(C)C1 (centres undefined) 14.1 µM [inhibitor, single point], CCCCC(CC)CNC(=O)C(=O)c1ccccc1NC(C)=O (centres undefined) 7.08 µM [inhibitor, partial curve, poor fit], Cc1nn(Cc2ccccc2Cl)c(C)c1C(=O)Nc1nnc(C2CC2)s1 1 µM [inhibitor, full curve, poor fit], CC1CCc2c(C(=O)NCc3ccco3)csc2C1 (centres undefined) 28.2 µM [inhibitor, single point], CCOc1ccc2c(=O)c(Oc3ccccc3)c(C)oc2c1 28.2 µM [inhibitor, single point], CCCCCn1cc2c(c1-c1ccccc1Br)c(=O)n(C)c(=O)n2C 28.2 µM [inhibitor, single point], Cn1c(Oc2ccccc2)c(C=O)c2ccccc21 14.1 µM [inhibitor, partial curve, poor fit], O=C(c1cn(-c2ccccc2)nc1-c1ccc(Br)cc1)N1CCOCC1 8.91 µM [inhibitor, partial curve, poor fit], COc1ccc(C(NC(=O)CN2C(=O)NC3(CCc4ccccc43)C2=O)c2ccccc2)cc1 (centres undefined) 14.1 µM [inhibitor, single point], COc1ccc(Cl)cc1NC(=O)c1ccccc1C 10 µM [inhibitor, partial curve, poor fit], CC(C)(C)NC(=O)COC(=O)c1ccccc1Nc1ccc(SC(F)F)cc1 11.2 µM [inhibitor, partial curve, poor fit], CC1(C)CC(=O)C2=C(C1)N(Cc1ccco1)C(=O)C2(NC(=O)c1ccc(Cl)cc1Cl)C(F)(F)F (centres undefined) 10 µM [inhibitor, partial curve, poor fit], Cn1nc(-c2ccccc2F)c2cc(C(=O)Nc3ccc4c(c3)OCCO4)sc21 8.91 µM [inhibitor, partial curve, poor fit], CC(=O)CCC1C2C(O)C(C(C)C)C(OC(=O)/C=C/c3ccccc3)CC12C (centres undefined) 12.6 µM [inhibitor, partial curve, poor fit], CCN(CC)CCCn1c2c(c(SCC(=O)Nc3cc(OC)cc(OC)c3)nc1=O)CCC2 10 µM [inhibitor, single point], CC(=O)NNC(=O)c1[nH]c2ccc(Cl)cc2c1-c1ccccc1 14.1 µM [inhibitor, single point], O=C(c1cccc(S(=O)(=O)N2CCCCCC2)c1)N1CCN(c2ccccc2)CC1 11.2 µM [inhibitor, partial curve, poor fit], CCOC(=O)c1c(-c2ccc(C)cc2)csc1NC(=O)CCN1CC(C)OC(C)C1 (centres undefined) 11.2 µM [inhibitor, single point], Cc1cccc(NC(=O)CSCC(=O)N(C)Cc2c(F)cccc2Cl)c1 11.2 µM [inhibitor, partial curve, poor fit], Cc1cc(C)c2nc(Cl)c(CN(Cc3ccco3)C(=O)Nc3ccccc3C)cc2c1 2.51 µM [inhibitor, full curve, poor fit], CCCOc1ccc(CNC(=S)Nc2ccccc2)cc1Cl 14.1 µM [inhibitor, partial curve, poor fit], CCCOc1ccc(C(=O)OCCN2CCCCC2)c(O)c1 3.16 µM [inhibitor, full curve], CC(C)Oc1cccc(C(=O)C2CCCN(Cc3ccc4nonc4c3)C2)c1 (centres undefined) 31.6 µM [inhibitor, partial curve, poor fit], Cc1ccccc1NC(=S)NC(NC(=O)C(C)(C)C)C(Cl)(Cl)Cl (centres undefined) 1 µM [inhibitor, full curve, poor fit], Cc1nc([N+](=O)[O-])c(Sc2nc3ccccc3[nH]2)n1Cc1ccccc1 10 µM [inhibitor, partial curve, poor fit], O=[N+]([O-])c1ccc(N=Nc2c(Cl)cc(O)cc2Cl)cc1 1 µM [inhibitor, full curve, poor fit], O=C(Nc1ccc(F)c(Cl)c1)c1cc(C2CCCCN2C(=O)CCc2ccccc2)on1 (centres undefined) 28.2 µM [inhibitor, single point], Cc1ccc(OCC(=O)N2CCCc3ccccc32)cc1 5.62 µM [inhibitor, partial curve, poor fit], CCC(C)[C@H](NC(=O)N1CC(=O)Nc2ccccc21)C(=O)Nc1ccccc1C (some centres undefined) 5.62 µM [inhibitor, full curve, poor fit], N/C(CCS(=O)(=O)c1ccc(Cl)cc1)=N\OC(=O)c1ccccc1Cl 28.2 µM [inhibitor, single point], CCC1CCCCN1CCCNC(=O)c1ccc(CS(=O)(=O)Cc2ccc(Cl)cc2)o1 (centres undefined) 8.91 µM [inhibitor, partial curve, poor fit], OC(COc1ccc(CNCc2cccnc2)cc1)CN1CCc2ccccc2C1 (centres undefined) 10 µM [inhibitor, partial curve, poor fit], CCOCCCn1c(=S)[nH]c2cc(C(=O)NCCCN(CC)CC)ccc2c1=O 14.1 µM [inhibitor, partial curve, poor fit], CC(C(=O)NCc1ccco1)n1ccc2cc(S(=O)(=O)N3CCCCC3)ccc21 (centres undefined) 10 µM [inhibitor, partial curve]

Activity change, negative = inhibition, inconclusive:
CCOc1ccc2[nH]c(C(=O)N/N=C/c3ccccc3OC)cc2c1 -51.1% [inhibitor]
